The supplement of paper PMC4604168 (melanoma cell lines)
Some of the results follow. Many values rest on one well or one pass, so single values are uncertain.

Key:
Assay in all cases: cell count relative to DMSO control; melanoma cells; higher = more viable cells
Settings in all cases: library dose: low library concentration; 72 h
COLO792 = system: COLO792
COLO800 = system: COLO800
COLO829 = system: COLO829
G361 = system: G361
IPC-298 = system: IPC-298
IST-MEL1 = system: IST-MEL1
LB2518-MEL = system: LB2518-MEL
LOXIMVI = system: LOXIMVI
MEL-HO = system: MEL-HO
MZ2-MEL = system: MZ2-MEL
MeWo = system: MeWo
RPMI7951 = system: RPMI7951
RVH-421 = system: RVH-421
SkMel28 = system: SkMel28
SkMel2 = system: SkMel2
SkMel30 = system: SkMel30
SkMel5 = system: SkMel5
UACC257 = system: UACC257
UACC62 = system: UACC62
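Note: cell number obtained by counting DAPI-stained nuclei in high-throughput microscope images with image analysis software, screen run in 1,536-well plates.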

SMILES | cell count (COLO792) | cell count (COLO800) | cell count (COLO829) | cell count (G361) | cell count (IPC-298) | cell count (IST-MEL1) | cell count (LB2518-MEL) | cell count (LOXIMVI) | cell count (MEL-HO) | cell count (MZ2-MEL) | cell count (MeWo) | cell count (RPMI7951) | cell count (RVH-421) | cell count (SkMel28) | cell count (SkMel2) | cell count (SkMel30) | cell count (SkMel5) | cell count (UACC257) | cell count (UACC62)
O=c1[nH]nc(Sc2ncc([N+](=O)[O-])s2)n1-c1ccc2c(c1)OCCO2 + Cn1cc(/C=C2\C(=O)Nc3cccnc32)c2ccccc21 [GW441756] (first compound 0.2 µM, partner dose 0.4 µM) | 103% | 119% | 109% | 89% | 92.3% | 98.5% | 110% | 96.5% | 107% | 96.5% | 106% | 95.3% | 116% | 99.2% | 98.5% | 96.6% | 94.4% | 83.7% | 74.2%
O=c1[nH]nc(Sc2ncc([N+](=O)[O-])s2)n1-c1ccc2c(c1)OCCO2 + CC(C)CCN1c2nc(Nc3cc(F)c(O)c(F)c3)ncc2N(C)C(=O)C1C [BID1870] (first compound 0.2 µM, partner dose 0.2 µM) | 90.1% | 134% | 103% | 114% | 102% | 106% | 106% | 116% | 97.2% | 103% | 97.5% | 111% | 93.4% | 81.5% | 101% | 89.1% | 128% | 99.5% | 103%
COc1cc(Nc2ncc(F)c(Nc3ccc4c(n3)NC(=O)C(C)(C)O4)n2)cc(OC)c1OC [Tamatinib] + C[C@@H]1CCN(C(=O)CC#N)C[C@@H]1N(C)c1ncnc2[nH]ccc12 [CP690550] (first compound 0.4 µM, partner dose 1 µM) | 55.7% | 94% | 87.7% | 91.7% | 86.7% | 88.4% | 70.8% | 108% | 85.5% | 95.3% | 83.7% | 88.7% | 98.1% | 71.5% | 92.6% | 87.2% | 94% | 83.7% | 78.6%
O=c1[nH]nc(Sc2ncc([N+](=O)[O-])s2)n1-c1ccc2c(c1)OCCO2 + COc1ccc2c(c1)CCC1C2CCC2(C)C(NCCCCCCN3C(=O)C=CC3=O)CCC12 [U73122] (first compound 0.2 µM, partner dose 0.4 µM) | 100% | 89.3% | 106% | 85.7% | 98% | 96.8% | 104% | 95.7% | 111% | 94.3% | 95.2% | 91.9% | 95.2% | 107% | 107% | 108% | 98.7% | 108% | 82.6%
C[C@@H]1CCN(C(=O)CC#N)C[C@@H]1N(C)c1ncnc2[nH]ccc12 + O=C(Nc1cccc(Cl)c1)Nc1ncc(CCNc2ncnc3ccsc23)s1 [SNS314] (first compound 1 µM, partner dose 0.0008 µM) | 98.3% | 76.5% | 110% | 104% | 112% | 106% | 98.8% | 71.9% | 115% | 102% | 101% | 112% | 97.9% | 100% | 108% | 117% | 96.3% | 103% | 80.9%
COc1cc(Nc2ncc(F)c(Nc3ccc4c(n3)NC(=O)C(C)(C)O4)n2)cc(OC)c1OC [Tamatinib] + OCCn1cc(-c2cnc3nnn(Cc4ccc5ncccc5c4)c3n2)cn1 [PF04217903] (first compound 0.4 µM, partner dose 1 µM) | 58.8% | 131% | 93.8% | 92.3% | 80% | 97.8% | 85.1% | 50.8% | 95.4% | 95% | 89.4% | 87.9% | 95.6% | 84.4% | 94.1% | 101% | 96.8% | 86.7% | 92.4%
O=c1[nH]nc(Sc2ncc([N+](=O)[O-])s2)n1-c1ccc2c(c1)OCCO2 + O=C(O)C(=O)Nc1sc2c(c1C(=O)O)CCNC2 [TCS401] (first compound 0.2 µM, partner dose 1.66667 µM) | 94.6% | 118% | 71% | 91% | 99.9% | 101% | 100% | 113% | 110% | 103% | 104% | 91% | 96.2% | 96.5% | 105% | 93% | 95.7% | 97.5% | 91.7%
O=c1[nH]nc(Sc2ncc([N+](=O)[O-])s2)n1-c1ccc2c(c1)OCCO2 + N#Cc1c(O)c2c(-c3ccc(-c4ccccc4O)cc3)csc2[nH]c1=O [A769662] (first compound 0.2 µM, partner dose 2 µM) | 117% | 110% | 112% | 129% | 107% | 106% | 99.4% | 110% | 102% | 109% | 113% | 110% | 121% | 97.4% | 114% | 106% | 116% | 116% | 125%
COc1cc(Nc2ncc(F)c(Nc3ccc4c(n3)NC(=O)C(C)(C)O4)n2)cc(OC)c1OC [Tamatinib] + CN(C)S(=O)(=O)c1ccc2c(c1)/C(=C/c1cc3c([nH]1)CCCC3)C(=O)N2 [SU6656] (first compound 0.4 µM, partner dose 0.4 µM) | 56.1% | 67.3% | 89.1% | 87.9% | 88.9% | 85.6% | 88% | 95.5% | 96.1% | 86.1% | 77.3% | 84.5% | 70.4% | 82.5% | 90.5% | 97.1% | 73% | 60.5% | 56.6%
CC1(C)NC(=O)N(c2ccc([N+](=O)[O-])c(C(F)(F)F)c2)C1=O [nilutamide] + C=CCn1c(=O)c2cnc(Nc3ccc(N4CCN(C)CC4)cc3)nc2n1-c1cccc(C(C)(C)O)n1 [MK1775] (first compound 1 µM, partner dose 0.02 µM) | 91% | 65% | 83.4% | 88% | 85% | 98.6% | 95% | 83.7% | 94.6% | 97.8% | 101% | 91% | 82.3% | 94.5% | 87.7% | 103% | 100% | 74.7% | 82.5%
O=c1[nH]nc(Sc2ncc([N+](=O)[O-])s2)n1-c1ccc2c(c1)OCCO2 + CCN(CC)CCCCNc1ncc2cc(-c3cc(OC)cc(OC)c3)c(NC(=O)NC(C)(C)C)nc2n1 [PD173074] (first compound 0.2 µM, partner dose 0.1 µM) | 105% | 102% | 85.5% | 93.8% | 106% | 95.9% | 108% | 88.8% | 98.1% | 104% | 99.5% | 91.3% | 93.7% | 93.1% | 108% | 93% | 93.4% | 116% | 102%
CC1(C)NC(=O)N(c2ccc([N+](=O)[O-])c(C(F)(F)F)c2)C1=O [nilutamide] + NC(=O)Nc1cc(-c2cccc(F)c2)sc1C(=O)N[C@H]1CCCNC1 [AZD7762] (first compound 1 µM, partner dose 0.02 µM) | 88.1% | 79.4% | 118% | 105% | 100% | 111% | 145% | 81.9% | 97.9% | 101% | 99.2% | 103% | 123% | 104% | 109% | 118% | 113% | 134% | 109%
O=c1[nH]nc(Sc2ncc([N+](=O)[O-])s2)n1-c1ccc2c(c1)OCCO2 + Oc1nc(-c2ccc(C(F)(F)F)cc2)nc2c1CSCC2 [XAV939] (first compound 0.2 µM, partner dose 2 µM) | 85.7% | 153% | 117% | 85% | 98.2% | 93% | 101% | 166% | 87.2% | 95.4% | 100% | 100% | 104% | 136% | 105% | 111% | 79.2% | 86.2% | 115%
CC1(C)NC(=O)N(c2ccc([N+](=O)[O-])c(C(F)(F)F)c2)C1=O [nilutamide] + Cc1cc(N2CCOCC2)cc2[nH]c(-c3c(NC[C@@H](O)c4cccc(Cl)c4)cc[nH]c3=O)nc12 [BMS536924] (first compound 1 µM, partner dose 0.2 µM) | 79.7% | 43.7% | 94.4% | 81.5% | 99.8% | 104% | 104% | 109% | 84.7% | 104% | 87.6% | 106% | 106% | 87.2% | 97.8% | 104% | 93% | 90.2% | 87.5%
Cn1cncc1[C@@](N)(c1ccc(Cl)cc1)c1ccc2c(c1)c(-c1cccc(Cl)c1)cc(=O)n2C [tipifarnib] + CN(NC(=O)CC(=O)NN(C)C(=S)c1ccccc1)C(=S)c1ccccc1 [STA4783] (first compound 0.01 µM, partner dose 0.006 µM) | 59.8% | 43.9% | 67.2% | 72% | 88.3% | 64.4% | 61.3% | 85.5% | 92.3% | 95.7% | 87.3% | 106% | 76.7% | 76.5% | 83.5% | 110% | 88.5% | 67.7% | 66.3%
O=c1[nH]nc(Sc2ncc([N+](=O)[O-])s2)n1-c1ccc2c(c1)OCCO2 + CCc1ccc(CCOc2ccc(CC3SC(=O)NC3=O)cc2)nc1 [pioglitazone] (first compound 0.2 µM, partner dose 2 µM) | 103% | 92.6% | 66.9% | 103% | 107% | 93.6% | 72.6% | 79.8% | 114% | 98.9% | 101% | 87.4% | 95.5% | 106% | 109% | 104% | 94.9% | 89.4% | 94%
O=c1[nH]nc(Sc2ncc([N+](=O)[O-])s2)n1-c1ccc2c(c1)OCCO2 + O=S(=O)(c1ccccc1)N(CC(F)(F)F)c1ccc(C(O)(C(F)(F)F)C(F)(F)F)cc1 [T0901317] (first compound 0.2 µM, partner dose 1.4 µM) | 89.3% | 101% | 85.7% | 78.5% | 94.7% | 95.5% | 105% | 102% | 86.2% | 99.7% | 97.2% | 100% | 85.9% | 76.2% | 96.9% | 104% | 96% | 130% | 103%
